In PMC4745695:
Changes are numbered by the printed parent chain. No constants are given. Whether binding was seen depends on the method and setting. Binding seen in cells or lysates may run through a third protein. Some results given as binding are weak or reduced against the parent protein; the word gives no strength. For some assays here: Where a sequence is shown, tags or fusion partners need not be part of it. One block for each molecule: values may come before it.

By UniProt entry, the sequences of proteins in these tests, tags left out. Residues count along the entry.
UniProt P25911: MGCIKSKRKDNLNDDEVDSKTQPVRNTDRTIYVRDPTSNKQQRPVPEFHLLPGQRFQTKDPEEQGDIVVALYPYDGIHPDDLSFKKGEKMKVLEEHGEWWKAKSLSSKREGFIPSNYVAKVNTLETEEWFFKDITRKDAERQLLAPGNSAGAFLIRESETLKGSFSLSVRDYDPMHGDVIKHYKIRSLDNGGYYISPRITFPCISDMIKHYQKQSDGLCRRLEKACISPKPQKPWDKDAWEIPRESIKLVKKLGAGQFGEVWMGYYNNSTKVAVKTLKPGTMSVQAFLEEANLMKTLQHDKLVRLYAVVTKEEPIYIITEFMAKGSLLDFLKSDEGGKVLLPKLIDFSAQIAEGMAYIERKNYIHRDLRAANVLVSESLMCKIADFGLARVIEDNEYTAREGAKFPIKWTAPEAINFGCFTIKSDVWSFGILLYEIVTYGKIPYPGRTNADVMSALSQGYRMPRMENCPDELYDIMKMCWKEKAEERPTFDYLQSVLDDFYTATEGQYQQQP
UniProt P05532, residues 25-979: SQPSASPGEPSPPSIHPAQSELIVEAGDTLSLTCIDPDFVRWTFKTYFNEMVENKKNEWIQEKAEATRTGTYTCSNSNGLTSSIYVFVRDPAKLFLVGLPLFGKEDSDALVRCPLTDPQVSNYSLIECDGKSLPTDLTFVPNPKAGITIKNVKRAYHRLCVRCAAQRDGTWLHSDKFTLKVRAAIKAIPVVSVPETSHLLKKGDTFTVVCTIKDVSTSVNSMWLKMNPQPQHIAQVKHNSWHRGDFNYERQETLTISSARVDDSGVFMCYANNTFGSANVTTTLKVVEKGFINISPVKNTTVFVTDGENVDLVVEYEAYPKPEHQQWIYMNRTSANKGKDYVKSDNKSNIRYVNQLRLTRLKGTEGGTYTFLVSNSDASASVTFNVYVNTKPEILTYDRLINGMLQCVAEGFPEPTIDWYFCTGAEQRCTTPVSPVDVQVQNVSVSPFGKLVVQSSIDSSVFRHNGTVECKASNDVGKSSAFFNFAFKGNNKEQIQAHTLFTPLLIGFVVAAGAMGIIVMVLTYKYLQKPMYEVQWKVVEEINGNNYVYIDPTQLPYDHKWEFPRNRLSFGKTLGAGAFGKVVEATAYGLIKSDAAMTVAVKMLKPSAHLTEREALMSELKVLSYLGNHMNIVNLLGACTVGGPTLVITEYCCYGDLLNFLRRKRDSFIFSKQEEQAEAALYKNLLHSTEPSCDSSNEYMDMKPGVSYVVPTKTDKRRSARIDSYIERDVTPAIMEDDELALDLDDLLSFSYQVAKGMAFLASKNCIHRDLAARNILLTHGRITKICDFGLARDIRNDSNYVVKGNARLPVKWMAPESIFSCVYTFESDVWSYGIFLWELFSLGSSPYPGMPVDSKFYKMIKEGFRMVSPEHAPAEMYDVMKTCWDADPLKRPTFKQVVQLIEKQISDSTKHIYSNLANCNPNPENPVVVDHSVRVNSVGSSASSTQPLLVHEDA
UniProt P10721, residues 26-976: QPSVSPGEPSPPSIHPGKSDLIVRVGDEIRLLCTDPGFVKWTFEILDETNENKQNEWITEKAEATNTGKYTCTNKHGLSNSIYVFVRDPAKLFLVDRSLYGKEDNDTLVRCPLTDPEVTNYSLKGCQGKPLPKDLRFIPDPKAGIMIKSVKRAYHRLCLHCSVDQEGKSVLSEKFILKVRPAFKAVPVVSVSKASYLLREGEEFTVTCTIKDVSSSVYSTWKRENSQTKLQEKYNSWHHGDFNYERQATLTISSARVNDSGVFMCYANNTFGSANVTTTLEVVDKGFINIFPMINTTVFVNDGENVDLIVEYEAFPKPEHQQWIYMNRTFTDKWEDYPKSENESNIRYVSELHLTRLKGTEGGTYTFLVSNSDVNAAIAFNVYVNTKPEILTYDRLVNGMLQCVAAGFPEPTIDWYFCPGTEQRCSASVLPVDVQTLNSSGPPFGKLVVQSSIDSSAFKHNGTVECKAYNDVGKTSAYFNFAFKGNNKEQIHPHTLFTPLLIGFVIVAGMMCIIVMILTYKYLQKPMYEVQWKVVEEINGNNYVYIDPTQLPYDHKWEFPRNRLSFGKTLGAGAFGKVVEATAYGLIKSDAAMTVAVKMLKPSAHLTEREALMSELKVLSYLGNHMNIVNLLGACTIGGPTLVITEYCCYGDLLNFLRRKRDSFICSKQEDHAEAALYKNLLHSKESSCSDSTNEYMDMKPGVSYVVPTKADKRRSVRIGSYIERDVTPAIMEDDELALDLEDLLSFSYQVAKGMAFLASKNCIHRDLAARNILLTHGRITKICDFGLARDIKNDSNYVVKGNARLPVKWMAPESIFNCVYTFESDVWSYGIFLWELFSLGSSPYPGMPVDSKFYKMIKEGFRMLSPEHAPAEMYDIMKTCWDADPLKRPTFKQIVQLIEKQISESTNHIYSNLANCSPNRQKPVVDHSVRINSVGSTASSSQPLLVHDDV

Columns and labels:
[1] = target: T1, HA-TAK1 (wild type, from pCMV-HA-wt-TAK1) (UniProt O43318); assay: co-IP; HEK293T transfected with HA-wt-TAK1 or K63W-TAK1 alone or together with c-Kit; TAK1-specific immunoprecipitation (protein-G sepharose, lysis buffer with 0,5% NP40), western blot (Figure 6E)
T1 sequence: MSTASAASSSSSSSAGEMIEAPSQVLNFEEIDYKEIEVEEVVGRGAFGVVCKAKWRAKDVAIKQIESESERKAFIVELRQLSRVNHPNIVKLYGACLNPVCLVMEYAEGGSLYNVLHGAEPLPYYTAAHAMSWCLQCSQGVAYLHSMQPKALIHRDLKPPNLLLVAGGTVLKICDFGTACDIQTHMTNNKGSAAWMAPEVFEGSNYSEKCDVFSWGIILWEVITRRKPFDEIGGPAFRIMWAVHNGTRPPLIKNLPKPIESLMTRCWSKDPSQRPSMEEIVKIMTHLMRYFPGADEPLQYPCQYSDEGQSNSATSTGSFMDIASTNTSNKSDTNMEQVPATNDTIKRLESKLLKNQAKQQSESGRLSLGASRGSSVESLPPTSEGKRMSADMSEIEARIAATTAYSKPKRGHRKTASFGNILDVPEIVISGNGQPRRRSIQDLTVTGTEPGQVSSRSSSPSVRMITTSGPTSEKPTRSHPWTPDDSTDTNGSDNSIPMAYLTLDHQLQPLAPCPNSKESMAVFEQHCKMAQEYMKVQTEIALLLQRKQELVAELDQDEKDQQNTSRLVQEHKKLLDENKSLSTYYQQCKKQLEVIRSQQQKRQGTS

[2] = target: T2, HA-K63W-TAK1 (inactive K63W-TAK1 mutant, from pCMV-HA-K63W-TAK1) (UniProt O43318); assay: as above
T2 sequence: T1 sequence with K63W

[3] = target: Lyn (endogenous in bone marrow-derived mast cells) (mouse (endogenous in BMMCs)) (UniProt P25911); assay: co-IP; lysates of SCF-stimulated (50 ng/ml) BMMCs; Lyn-specific immunoprecipitation (protein-G sepharose, lysis buffer with 0,5% NP40), western blot (Figure 6C, 6D)
[4] = target: T3, HA-TAK1 (wild type, from pCMV-HA-wt-TAK1), O43318; assay: co-IP; HEK293T transfected with HA-wt-TAK1 or K63W-TAK1 alone or together with c-Kit; TAK1-specific immunoprecipitation (protein-G sepharose, lysis buffer with 0,5% NP40), western blot (Figure 6E); conditions: remark: other sources report otherwise
T3 chain: T1 sequence

[5] = target: c-Kit (endogenous in bone marrow-derived mast cells) (mouse (endogenous in BMMCs)) (UniProt P05532); assay: co-IP; lysates of SCF-stimulated (50 ng/ml) BMMCs; c-Kit-specific immunoprecipitation (protein-G sepharose, lysis buffer with 0,5% NP40), western blot (Figure 6B)

Molecule: c-Kit (endogenous in bone marrow-derived mast cells) (from UniProt P05532 25-979) (receptor)
binding [3]: binds

B1: IKK2 (endogenous in HEK293T cells), O14920 1-756 (enzyme)
chain: MSWSPSLTTQTCGAWEMKERLGTGGFGNVIRWHNQETGEQIAIKQCRQELSPRNRERWCLEIQIMRRLTHPNVVAARDVPEGMQNLAPNDLPLLAMEYCQGGDLRKYLNQFENCCGLREGAILTLLSDIASALRYLHENRIIHRDLKPENIVLQQGEQRLIHKIIDLGYAKELDQGSLCTSFVGTLQYLAPELLEQQKYTVTVDYWSFGTLAFECITGFRPFLPNWQPVQWHSKVRQKSEVDIVVSEDLNGTVKFSSSLPYPNNLNSVLAERLEKWLQLMLMWHPRQRGTDPTYGPNGCFKALDDILNLKLVHILNMVTGTIHTYPVTEDESLQSLKARIQQDTGIPEEDQELLQEAGLALIPDKPATQCISDGKLNEGHTLDMDLVFLFDNSKITYETQISPRPQPESVSCILQEPKRNLAFFQLRKVWGQVWHSIQTLKEDCNRLQQGQRAAMMNLLRNNSCLSKMKNSMASMSQQLKAKLDFFKTSIQIDLEKYSEQTEFGITSDKLLLAWREMEQAVELCGRENEVKLLVERMMALQTDIVDLQRSPMGRKQGGTLDDLEEQARELYRRLREKPRDQRTEGDSQEMVRLLLQAIQSFEKKVRVIYTQLSKTVVCKQKALELLPKVEEVVSLMNEDEKTVVRLQEKRQKELWNLLKIACSKVRGPVSGSPDSMNASRLSQPGQLMSQPSTASNSLPEPAKKSEELVAEAHNLCTLLENAIQDTVREQDQSFTALDWSWLQTEEEEHSCLEQAS
binding [4]: binds

B4: TAK1 (endogenous in bone marrow-derived mast cells) (enzyme, UniProt Q62073 1-579)
chain: MSTASAASSSSSSSASEMIEAPSQVLNFEEIDYKEIEVEEVVGRGAFGVVCKAKWRAKDVAIKQIESESERKAFIVELRQLSRVNHPNIVKLYGACLNPVCLVMEYAEGGSLYNVLHGAEPLPYYTAAHAMSWCLQCSQGVAYLHSMQPKALIHRDLKPPNLLLVAGGTVLKICDFGTACDIQTHMTNNKGSAAWMAPEVFEGSNYSEKCDVFSWGIILWEVITRRKPFDEIGGPAFRIMWAVHNGTRPPLIKNLPKPIESLMTRCWSKDPSQRPSMEEIVKIMTHLMRYFPGADEPLQYPCQYSDEGQSNSATSTGSFMDIASTNTSNKSDTNMEQVPATNDTIKRLESKLLKNQAKQQSESGRLSLGASRGSSVESLPPTSEGKRMSADMSEIEARIVATAGNGQPRRRSIQDLTVTGTEPGQVSSRSSSPSVRMITTSGPTSEKPARSHPWTPDDSTDTNGSDNSIPMAYLTLDHQLQPLAPCPNSKESMAVFEQHCKMAQEYMKVQTEIALLLQRKQELVAELDQDEKDQQNTSRLVQEHKKLLDENKSLSTYYQQCKKQLEVIRSQQQKRQGTS
binding [3]: binds
binding [5]: binds

More lines, now with the values ahead:

binding [1]: binds
binding [2]: no binding
Molecule: c-Kit (overexpressed wt c-Kit from pcDNA3.1-c-Kit) (from UniProt P10721 26-976) (receptor)

binding [2]: no binding
B2: IKK2 (endogenous in HEK293T cells) (enzyme, UniProt O14920 1-756)
chain: B1 chain

binding [3]: no binding
B3: IKK2 (endogenous in bone marrow-derived mast cells) (enzyme, UniProt O88351 1-757)
chain: MSWSPSLPTQTCGAWEMKERLGTGGFGNVIRWHNQATGEQIAIKQCRQELSPKNRNRWCLEIQIMRRLNHPNVVAARDVPEGMQNLAPNDLPLLAMEYCQGGDLRRYLNQFENCCGLREGAVLTLLSDIASALRYLHENRIIHRDLKPENIVLQQGEKRLIHKIIDLGYAKELDQGSLCTSFVGTLQYLAPELLEQQKYTVTVDYWSFGTLAFECITGFRPFLPNWQPVQWHSKVRQKSEVDIVVSEDLNGAVKFSSSLPFPNNLNSVLAERLEKWLQLMLMWHPRQRGTDPQYGPNGCFRALDDILNLKLVHVLNMVTGTVHTYPVTEDESLQSLKTRIQENTGILETDQELLQKAGLVLLPDKPATQCISDSKTNEGLTLDMDLVFLLDNSKINYETQITPRPPPESVSCILQEPKRNLSFFQLRKVWGQVWHSIQTLKEDCNRLQQGQRAAMMSLLRNNSCLSKMKNAMASTAQQLKAKLDFFKTSIQIDLEKYKEQTEFGITSDKLLLAWREMEQAVEQCGRENDVKHLVERMMALQTDIVDLQRSPMGRKQGGTLDDLEEQARELYRKLREKPRDQRTEGDSQEMVRLLLQAIQSFEKKVRVIYTQLSKTVVCKQKALELLPKVEEVVSLMNEDERTVVRLQEKRQKELWNLLKIACSKVRGPVSGSPDSMNVSRLSHPGQLMSQPSSACDSLPESDKKSEELVAEAHALCSRLESALQDTVKEQDRSFTTLDWSWLQMEDEERCSLEQACD
